Biological target: the molecule itself
Assay: PIE-FCCS

B1: neuropilin-1 (receptor)
chain: not shown
- median fraction correlated (fc): 0.14

B2: Plexin A4 (receptor)
chain: not shown
- median fraction correlated (fc): 0.14
- stoichiometry N: 2
